The labels stand for the following.
B1: LINE1-mini (parent)
chain: GGCAGAGCUCAACACAGCGUGGCAAAGUGGCUGUGGCUAGACUGCC

The source gives no read counts; variants with many changes may rest on few reads.

The data set covers variants of B1. Nature of the data set: self-cleavage, relative activity (ratio to wild type); higher = more cleavage; in vitro, sequencing; the parent is a self-cleaving ribozyme.
As to C18A A26U U32C, the self-cleavage worked out at 0.28.

For G17U G27U A39C, the self-cleavage was 0.01.

Turning to G17C G40A U43A G44U, the self-cleavage is 0.05.

Consider G17U U20C G21C, for which the self-cleavage worked out at 0.11.

In the case of G17C U20A G27A, the self-cleavage worked out at 0.56.

For the variant G17C U20C G33U C42G C46A, the self-cleavage worked out at 0.

In the case of C18A C31A A39C C46G, the self-cleavage turned out to be 0.01.

With G17U G35U C37A, the self-cleavage turned out to be 0.

As for G17C G40U A41U, the self-cleavage is 0.03.

Take G17C U38A C46U: the self-cleavage amounted to 0.04.

As for C18A G19A C31A U32A G44C, the self-cleavage was 0.03.

For G17C G22U C37G U38C C46A, the self-cleavage stood at 0.01.

Turning to C18A A26C G36C A39C, the self-cleavage worked out at 0.

Turning to G17C C23G A41C C46G, the self-cleavage is 0.03.

As to C18A A26C U34A, the self-cleavage came out at 0.02.

For G17C G22U U34C G35A C45U C46A, the self-cleavage is 0.05.

As to G17U G30U G36A G40U A41U, the self-cleavage came out at 0.12.

Consider G17C G21C A25G U28A, for which the self-cleavage came to 0.09.

On to G17U G22A G33A C37G, for which the self-cleavage came out at 0.01.

For C18A A26U G44A, the self-cleavage is 0.04.

Regarding G17C A24G G30A G44U, the self-cleavage was 0.01.

G17U U20A U43G: the self-cleavage came out at 0.01.

Turning to G17C C23A C37U, the self-cleavage came to 0.04.

With G17C U38G G40A C42U, the self-cleavage came out at 0.06.

On to G17C G19C G27U, for which the self-cleavage was 0.34.

On to G17C C23A G27U, for which the self-cleavage turned out to be 2.43.

G17U G30A A39C: the self-cleavage was determined as 0.27.

Consider C18A A25C U38A G40A, for which the self-cleavage is 0.03.

On to G17C G33A C37A A41G, for which the self-cleavage was 0.07.

On to G17C G19U C42G, for which the self-cleavage came to 0.04.

Consider G17U A25G U38G C46A, for which the self-cleavage was 0.02.

For the variant G17C A26U U28A G35U, the self-cleavage was determined as 0.04.

G17C G21A G40C: the self-cleavage was 0.03.

For G17C G19A G30A C37G, the self-cleavage came out at 0.01.

C18A A26G G27U: the self-cleavage stood at 0.02.

Take G17U C31A G36C: the self-cleavage was 0.21.

Take G17C A25C C42A C45U: the self-cleavage turned out to be 0.01.

For the variant G17U G19U U20A G22A G29U G44U, the self-cleavage was 0.02.

As for G17C G21C G22A A26U, the self-cleavage came out at 0.41.

On to G17U G33A U43A, for which the self-cleavage amounted to 0.02.

Take G17C U20A C45U: the self-cleavage was 0.15.

On to G17C C18A U20G, for which the self-cleavage was 0.04.

For G17C C31A C37A, the self-cleavage turned out to be 0.02.

As to G17C G22U A41G, the self-cleavage came to 0.11.

As for G17U G21U G29A, the self-cleavage worked out at 1.81.

As for G17C G21C A41G, the self-cleavage stood at 0.2.

Take G17C C23A C31U: the self-cleavage was found to be 0.04.

In the case of G17U A25G C42G C46G, the self-cleavage came to 0.01.

For G17C G19U C23A A26C, the self-cleavage was determined as 0.45.

For the variant G17C U20G U28C G44C, the self-cleavage came to 0.07.

Turning to G17A U38G G44A, the self-cleavage was 0.01.

Take C18A A24U G30U U32G A39G: the self-cleavage stood at 0.02.

As for C18A A26G U34C, the self-cleavage was found to be 0.11.

As for G17C A26G G35C A39C, the self-cleavage is 0.03.

For G17C G36A G40C C45G, the self-cleavage worked out at 0.03.

With C18A C23G G30A, the self-cleavage was found to be 0.9.

Regarding G17U A25C G44C, the self-cleavage was determined as 0.01.

Turning to C18A A25U C31U G36U, the self-cleavage is 0.06.

In the case of G17U A24U G44U C45A, the self-cleavage worked out at 0.04.

On to G17C C18A C46U, for which the self-cleavage turned out to be 0.08.

Take G17U U34A G36C: the self-cleavage was 0.

In the case of G17C U20C A24U U32C C37U, the self-cleavage amounted to 0.04.

Consider G17U C18A G35U, for which the self-cleavage stood at 0.07.

Consider G17U A26C A39U, for which the self-cleavage is 0.31.

With G17C C23A C31A C45A, the self-cleavage turned out to be 0.13.

As to C18A C31U C46U, the self-cleavage was determined as 0.04.

Take G17C A24C A25U G33A: the self-cleavage was 0.

Consider C18A C23U A24U C37A, for which the self-cleavage is 0.04.

In the case of G17C G36A G40A G44C, the self-cleavage is 0.02.

For G17C U38G C45A, the self-cleavage came out at 0.04.

With G17U A26G C31A U32A A41G, the self-cleavage turned out to be 0.01.

For C18A A24U A26U G44U, the self-cleavage was 0.04.

Take C18A C31A G35A: the self-cleavage came to 0.03.

For the variant G17U U28C G35C G40U C42A, the self-cleavage was found to be 0.03.

Consider G17C C18G G21C C46A, for which the self-cleavage worked out at 0.05.

As to G17U C23U A25U, the self-cleavage is 0.13.

With G17U A26C C37U G44C, the self-cleavage was determined as 0.03.

On to G17C G27A G29U U32G G36A, for which the self-cleavage turned out to be 0.04.

Turning to G17U U32A G40C, the self-cleavage is 0.08.

For the variant G17C C18A G19C C23A A25G, the self-cleavage turned out to be 0.92.

Regarding G17U G29C U34C G35C, the self-cleavage stood at 0.02.

As to G17U G27A G30A U34C C37U, the self-cleavage was found to be 0.13.

Take G17U G29A C45G: the self-cleavage was found to be 0.05.

Regarding C18A A25U C37U C45G, the self-cleavage was found to be 0.01.

Turning to G17U U34C G44C, the self-cleavage worked out at 0.47.

With G17U G29U G30C U38G, the self-cleavage was determined as 0.02.

For the variant G17C G30U C31U, the self-cleavage stood at 0.03.

As to G17C G30U C31A, the self-cleavage is 0.13.

As to C18A A24G C31A U34A, the self-cleavage worked out at 0.01.

For G17U C18G G21U, the self-cleavage was 0.26.

C18A C23G C31U G36A: the self-cleavage amounted to 0.02.

On to G17U A26G G40A U43C, for which the self-cleavage came out at 0.05.

On to G17U C18A G21C G35C C46A, for which the self-cleavage amounted to 0.03.

G17U G22U C31A U43C: the self-cleavage was 0.02.

In the case of G17U G22A G35A, the self-cleavage was determined as 0.04.

Consider G17U G21C G22C A26C U32G G35A, for which the self-cleavage was determined as 0.24.

For the variant G17C G27U G36U, the self-cleavage is 0.15.

As to G17U G29C G40A, the self-cleavage is 0.08.

As to G17U A39G C42U C46G, the self-cleavage is 0.02.

As for G17C G19C G40A U43C, the self-cleavage was 0.02.

Regarding G17U A25U C37G, the self-cleavage was 0.06.

Regarding G17U A24U G36C C37U, the self-cleavage stood at 0.04.

As to G17C U32A G44U, the self-cleavage turned out to be 0.05.

For the variant G17C G30A U43A, the self-cleavage is 0.14.

Consider C18A A26G G29U, for which the self-cleavage came out at 0.52.

On to C18A A25G G36A C45G, for which the self-cleavage stood at 0.01.

As to G17C C18U G35A U38C, the self-cleavage came to 0.01.

Regarding G17U G21A G29A, the self-cleavage was determined as 0.84.

Turning to G17C A25U C31A, the self-cleavage turned out to be 0.61.

For the variant G17U A39C C42A, the self-cleavage was 0.01.

As for G17C C18G G35A C37G, the self-cleavage was 0.06.

On to G17C C18A G27U U32C C37U, for which the self-cleavage was 0.01.

Take G17C C23U G35C C45G: the self-cleavage was determined as 0.01.

G17U A24U C42U: the self-cleavage is 0.06.

G17U C18G G19C G36A: the self-cleavage was determined as 0.31.

C18A A24G U34A C45A: the self-cleavage came to 0.

As for G17U A24G U32G, the self-cleavage is 0.01.

For the variant G17U A24C G35C, the self-cleavage is 0.06.

Consider G17C G40U C42A, for which the self-cleavage came to 0.05.

As to G17C G36U A39C, the self-cleavage turned out to be 0.03.

Turning to G17U G27C A41C, the self-cleavage turned out to be 0.12.

Consider G17U C37G A39U, for which the self-cleavage was determined as 0.02.

As for G17U A25C A39G A41G, the self-cleavage is 0.01.

With G17U A41G C42U G44C, the self-cleavage is 0.02.

On to G17C U32A A41U, for which the self-cleavage is 0.08.

In the case of C18A A24C G44U, the self-cleavage turned out to be 0.01.

G17U A24C A25C G40U: the self-cleavage was determined as 0.02.

For G17U G36U U43A, the self-cleavage came out at 0.18.

On to C18A C31U G33U, for which the self-cleavage was found to be 0.04.

As for G17U C18G G21U A25U C31G G33C, the self-cleavage came out at 0.11.

For G17C U34A G44U, the self-cleavage stood at 0.02.

On to G17C C18U G19A G22C G29A G40A, for which the self-cleavage worked out at 0.02.

For the variant C18A A39G U43A C45U, the self-cleavage stood at 0.03.

C18A C23U G40U: the self-cleavage turned out to be 0.02.

For the variant C18A A25U A26G C42A, the self-cleavage came out at 0.05.

G17U C31G U32A C45A: the self-cleavage was 0.04.

In the case of C18A C31G U34A C46G, the self-cleavage was determined as 0.02.

For the variant G17U G19C U28A, the self-cleavage came out at 0.93.

As for G17U G21U G44A, the self-cleavage was determined as 0.02.

For the variant G17U G27U G35U, the self-cleavage worked out at 0.06.

For G17U A24U G44U, the self-cleavage was 0.04.

Turning to G17C G21C G22A U32C G33A, the self-cleavage is 0.09.

As to G17C A24G G30A, the self-cleavage was 0.09.

With G17U U20C U32G, the self-cleavage is 0.03.

For G17C G29A G44U, the self-cleavage was determined as 0.08.

For the variant G17U U32C G33A, the self-cleavage was 0.08.

Turning to G17C G22U G29C C31G C42A, the self-cleavage turned out to be 0.08.

Turning to G17C G30C G36A, the self-cleavage came out at 0.03.

As to G17C A24C G29U A39U G44U, the self-cleavage was 0.02.

For G17C C31G C46G, the self-cleavage stood at 0.28.

With G17C G29U G30A, the self-cleavage worked out at 0.13.

With G17C G29U G30C, the self-cleavage worked out at 0.06.

Consider G17C G21U C42U, for which the self-cleavage worked out at 0.34.

On to G17U A26U C31A U32C, for which the self-cleavage was 0.08.

Take G17C G21C G27U: the self-cleavage was found to be 0.71.

Take G17U G35U U43A: the self-cleavage amounted to 0.11.

For G17U A24U G30A G35C, the self-cleavage turned out to be 0.01.

In the case of G17U G27U U32A, the self-cleavage came to 0.04.

As for G17U G27U U32C, the self-cleavage came to 0.09.

On to G17U G29U U34C G40U, for which the self-cleavage worked out at 0.11.

On to G17C G40C A41C, for which the self-cleavage stood at 0.03.

As to G17U C18U A39C C46G, the self-cleavage was found to be 0.02.

In the case of G17U U20G G35C, the self-cleavage stood at 0.03.

In the case of G17C U20C U28C C31G, the self-cleavage turned out to be 0.01.

Regarding G17C G33C A41C, the self-cleavage came out at 0.04.

On to C18A A25G G30U, for which the self-cleavage amounted to 0.81.

Turning to G17C A25G C46G, the self-cleavage turned out to be 0.04.

For the origin of these results see the RNAGym collection of RNA variant scans (doi:10.7554/elife.90254).
